Measurements from PubChem BioAssay AID2147 (National Center for Advancing Translational Sciences (NCATS), 2009).
Values joined by “and” are separate entries in the source; they are usually repeats but may differ in a detail not shown here. Equal entries are not always repeated. Out of some 230,000 compounds screened, about 3,600 (1.6%) were called active. The shares of active, inactive and inconclusive entries below differ from those in the screen. Calls come from the whole dose curve; as a rule, active = well fitted inhibition curve with a large enough effect (not every such curve was filed as active); inconclusive = small, poorly fitted or top-dose-only effect, or another doubt; inactive = no such curve, though single readings can be large or run the other way. Potencies beside an inconclusive call are fits to weak or partial responses and may not hold up.

Molecular target: Lysine-specific demethylase 4E (Homo sapiens) (UniProt B2RXH2)
Assay: qHTS Assay for Inhibitors of Human Jumonji Domain Containing 2E (JMJD2E)
Conditions: JMJD2E catalytic domain, FDH-coupled NADH fluorescence (FDH is formaldehyde dehydrogenase); series mostly up to 57.1 µM
Note: nearly all actives have a fitted effect of over 50% in size.
Potency is the fitted concentration of half-maximal effect; tags give direction and shape of the fitted curve.

Sequence of UniProt B2RXH2 (B2RXH2 whole entry, looked up, the tested form may be a part): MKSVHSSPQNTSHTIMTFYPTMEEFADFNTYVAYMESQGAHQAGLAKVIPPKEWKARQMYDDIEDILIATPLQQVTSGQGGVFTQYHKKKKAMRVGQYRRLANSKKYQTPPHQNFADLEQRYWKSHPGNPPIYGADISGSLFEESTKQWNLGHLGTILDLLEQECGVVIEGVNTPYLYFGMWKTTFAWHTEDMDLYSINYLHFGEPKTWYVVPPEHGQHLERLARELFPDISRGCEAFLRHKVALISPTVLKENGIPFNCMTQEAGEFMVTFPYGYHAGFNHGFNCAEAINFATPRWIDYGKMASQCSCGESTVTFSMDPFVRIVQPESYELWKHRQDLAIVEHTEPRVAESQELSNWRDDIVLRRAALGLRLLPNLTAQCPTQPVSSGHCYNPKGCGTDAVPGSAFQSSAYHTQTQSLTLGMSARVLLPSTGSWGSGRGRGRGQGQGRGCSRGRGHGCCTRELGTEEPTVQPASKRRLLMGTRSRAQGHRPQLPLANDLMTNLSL

For `FC(F)(F)c1ccnc(N2CCN(Cc3cnc(-c4ccccc4)[nH]3)CC2)c1`, which Potency is on record?
Its Potency is inconclusive: 39.8 µM [inhibitor, single point].

For `COc1ccc(Nc2nc(-c3cccs3)cs2)cc1`, which Potency is on record?
Its Potency is “inactive”.

With `CCn1c2ccccc2c2cc(NC(=O)N3CCOCC3)ccc21` as the molecule, how does the Potency read?
The Potency was inconclusive: 28.2 µM [inhibitor, partial curve].

How did the Potency turn out when `O=C(C1=C[C@@H]2[C@H]3C(=O)N(c4cccc(Cl)c4)C(=O)[C@H]3[C@@H](C(=O)c3ccc(Cl)cc3)N2C=C1)c1ccccc1` was run?
The Potency was “inactive”.

With `O=c1oc(-c2cccs2)nc2ccc(Br)cc12` as the molecule, how does the Potency read?
Its Potency is inconclusive: 39.8 µM [inhibitor, single point].

For `COC(=O)C1=C(C)N(C)C(=O)NC1c1cc2c(cc1[N+](=O)[O-])OCO2` (stereo not drawn), which Potency is on record?
Its Potency is inconclusive: 25.1 µM [inhibitor, partial curve].

For `Cc1cccc(OCCSc2nc(N)cc(N)n2)c1`, which Potency is on record?
Its Potency is “inactive”.

For `COc1ccc2[nH]c(=O)c(CNC3CCCCC3)cc2c1`, which Potency is on record?
The Potency was inconclusive: 31.6 µM [inhibitor, partial curve].

With `CCOC(=O)C1=C(C)NC(=O)CC1c1ccccc1` (stereo not drawn) as the molecule, how does the Potency read?
The Potency was “inactive”.

`COc1ccccc1N1CCN(Cc2cccc(OC)c2OC)CC1` was tested. Which Potency did it give?
The Potency was inconclusive: 35.5 µM [inhibitor, single point].

`CCCN(CCC)CCNc1c(NC2CCN(C(=O)OCC)CC2)c(=O)c1=O` was tested. Which Potency did it give?
Its Potency is “inactive”.

How did the Potency turn out when `CCOC(=O)N1CCN(C(=O)Cn2ccc3c(OC)cccc3c2=O)CC1` was run?
Its Potency is inconclusive: 35.5 µM [inhibitor, partial curve].

Which Potency does the source give for `COc1ccccc1C1c2[nH]c3ccccc3c2CCN1Cc1cnc(C)s1` (stereo not drawn) here?
The Potency was inconclusive: 22.4 µM [inhibitor, single point].

`C=CCn1c(CSc2nc3ccccc3s2)n[nH]c1=S` was tested. Which Potency did it give?
Its Potency is inconclusive: 39.8 µM [inhibitor, single point].

For `COc1cc(/C=N/Nc2ccc(F)cc2F)cc(OC)c1O`, which Potency is on record?
Its Potency is active: 7.94 µM.

Which Potency does the source give for `CCOC(=O)CCNC(=O)N1CCCC(C(=O)c2ccc3c(c2)OCO3)C1` (stereo not drawn) here?
The Potency was inconclusive: 22.4 µM [inhibitor, single point].

How did the Potency turn out when `Cc1[nH]c2ccc(F)cc2c1CCN(Cc1cccnc1)C(=S)Nc1cccc(F)c1` was run?
The Potency was “inactive”.

`CN(C)CC(C)(C)CNC(=O)c1cc(Br)cc(Br)c1O` was tested. Which Potency did it give?
The Potency was inconclusive: 35.5 µM [inhibitor, single point].

For `Cc1cc(Br)cc(C)c1OCCCCN(C)C`, which Potency is on record?
The Potency was inconclusive: 39.8 µM [inhibitor, single point].

How did the Potency turn out when `COc1ccc(C2c3c(ncn(CCN4CCOCC4)c3=N)Oc3ccc4ccccc4c32)cc1OC` (stereo not drawn) was run?
Its Potency is “inactive”.

With `COc1ccccc1NC(=O)Cc1noc(CSc2nnc(C)n2C)n1` as the molecule, how does the Potency read?
Its Potency is “inactive”.

How did the Potency turn out when `CCOC(=O)C1=C(N)OC2=C(C(=O)CC(C)(C)C2)C1c1ccco1` (stereo not drawn) was run?
Its Potency is “inactive”.

For `O=C(Nc1ccccc1Br)c1ccccc1-c1ccccc1`, which Potency is on record?
The Potency was “inactive”.

Which Potency does the source give for `COc1ccc(CC(=O)n2nc(-c3ccc(Cl)cc3)nc2NCc2ccco2)cc1` here?
Its Potency is inconclusive: 31.6 µM [inhibitor, single point].

With `CCc1c2c(nc3cccc(OC)c13)OC(CC)C2` (stereo not drawn) as the molecule, how does the Potency read?
The Potency was inconclusive: 28.2 µM [inhibitor, partial curve].

Which Potency does the source give for `CC1(C)CC(=O)C2=C(C1)N(Cc1ccco1)C(=O)C2(NC(=O)c1cccnc1)C(F)(F)F` (stereo not drawn) here?
The Potency was “inactive”.

For `Cc1cc(C)nc(Sc2ncnc(N)c2[N+](=O)[O-])n1`, which Potency is on record?
The Potency was “inactive”.

How did the Potency turn out when `COc1ccc(CNCC(=O)Nc2ccccc2-n2cccc2)cc1` was run?
Its Potency is inconclusive: 31.6 µM [inhibitor, single point].

Which Potency does the source give for `CN(C)S(=O)(=O)c1cccc(C(=O)NCc2ccco2)c1` here?
The Potency was “inactive”.

With `Cn1c(=O)c2c(-c3cccc(Br)c3)c(C#N)c(N)nc2n(C)c1=O` as the molecule, how does the Potency read?
The Potency was “inactive”.

With `COc1cccc(Cn2c(=O)c3ccccc3n3nc(C)cc23)c1` as the molecule, how does the Potency read?
The Potency was inconclusive: 25.1 µM [inhibitor, single point].

How did the Potency turn out when `Cc1c[n+]([O-])n(-c2ccc(C(=O)O)cc2)n1` was run?
Its Potency is “inactive”.

Which Potency does the source give for `CC(=O)N1N=C(c2ccncc2)OC1(Cc1ccccc1)Cc1ccccc1` here?
The Potency was inconclusive: 31.6 µM [inhibitor, partial curve].

Which Potency does the source give for `CCn1cc(C(=O)O)c(=O)c2cnc(N3CCN(C(=S)NC(=O)c4ccc(Cl)cc4)CC3)nc21` here?
The Potency was inconclusive: 39.8 µM [inhibitor, single point].

`O=C(NN1CCOCC1)c1cc(-c2ccc(Br)s2)nc2ccccc12` was tested. Which Potency did it give?
The Potency was inconclusive: 31.6 µM [inhibitor, partial curve].

Which Potency does the source give for `CCOc1ccc(NCc2nc3ccccc3n2CCOc2ccccc2)cc1` here?
The Potency was “inactive”.

Which Potency does the source give for `C#CCOCCOCCOCCNc1nc(N2CCN(C(=O)[C@H](Cc3ccc(O)cc3)n3cc([C@@H](N)C(C)CC)nn3)CC2)nc(N2CCN(C(=O)[C@H](Cc3cc4ccccc4[nH]3)n3cc([C@@H](N)C(C)CC)nn3)CC2)n1` (stereo partly drawn) here?
Its Potency is inconclusive: 39.8 µM [inhibitor, single point].

`COC(=O)CSc1nnc2cc(C)c3ccccc3n12` was tested. Which Potency did it give?
The Potency was inconclusive: 35.5 µM [inhibitor, single point].

How did the Potency turn out when `COCn1c(-c2ccc(OC)c(OC)c2)nc2ccccc21` was run?
The Potency was inconclusive: 35.5 µM [inhibitor, partial curve].

For `c1cc2c(cc1C1CCCCC1)c1c3n2CCCNC3CCC1` (stereo not drawn), which Potency is on record?
The Potency was “inactive”.

How did the Potency turn out when `COc1cc2c(cc1OC)C(Cc1ccc(O)cc1)N(C)CC2` (stereo not drawn) was run?
Its Potency is inconclusive: 39.8 µM [inhibitor, single point].

For `COC(=O)[C@H](Cc1ccccc1)NC(=O)O[C@@H]1C(=O)c2cc(OC)ccc2O[C@H]1c1ccc(OC)c(Br)c1`, which Potency is on record?
Its Potency is inconclusive: 28.2 µM [inhibitor, partial curve] and inconclusive: 39.8 µM [inhibitor, single point].

With `COc1cccc(-c2ccc3c(N)c(C(=O)NC4CC4)sc3n2)c1` as the molecule, how does the Potency read?
Its Potency is inconclusive: 31.6 µM [inhibitor, single point].

With `CCOC(=O)N1CCN(S(=O)(=O)c2ccc(C(=O)Nc3sc4c(c3C#N)CCC4)cc2)CC1` as the molecule, how does the Potency read?
The Potency was inconclusive: 3.98 µM [inhibitor, single point].

How did the Potency turn out when `Cc1ccc(Oc2nc3ccccn3c(=O)c2/C=C(\C#N)C(=O)NC2CCS(=O)(=O)C2)cc1` (stereo not drawn) was run?
The Potency was inconclusive: 7.94 µM [inhibitor, partial curve].

With `COCc1cc(C)nc2sc(C(=O)OC(C)C)c(N)c12` as the molecule, how does the Potency read?
The Potency was inconclusive: 25.1 µM [inhibitor, partial curve].

`CCC(C)NC(=O)CN(c1ccc(OC)cc1)S(=O)(=O)c1ccc(NC(C)=O)cc1` (stereo not drawn) was tested. Which Potency did it give?
Its Potency is “inactive”.

`CCOc1cc(/C=N/Nc2cc(C)nc(-n3nc(C)cc3C)n2)ccc1O` was tested. Which Potency did it give?
The Potency was inconclusive: 31.6 µM [inhibitor, single point].

For `COc1ccc(C(=O)Oc2c(CN3CCOCC3)cc(Cl)c3cccnc23)cc1`, which Potency is on record?
The Potency was inconclusive: 39.8 µM [inhibitor, single point].

How did the Potency turn out when `N#C/C(=C\c1ccc(OCC(N)=O)cc1)S(=O)(=O)c1ccccc1` was run?
Its Potency is inconclusive: 2 µM [inhibitor, full curve].

For `O=C(Nn1cc(C(=O)N2CCN(c3ccccc3F)CC2)c2ccccc2c1=O)c1cnccn1`, which Potency is on record?
Its Potency is inconclusive: 39.8 µM [inhibitor, single point].

Which Potency does the source give for `O=S(=O)(NCCOCCNS(=O)(=O)c1ccccc1)c1ccccc1` here?
Its Potency is “inactive”.

For `Cc1c(Cc2ccccc2)c(=O)oc2cc(O)ccc12`, which Potency is on record?
Its Potency is inconclusive: 28.2 µM [inhibitor, partial curve].

Which Potency does the source give for `Cc1noc(NS(=O)(=O)c2ccc(NC(=O)CSc3nc4ccccc4s3)cc2)c1C` here?
Its Potency is inconclusive: 39.8 µM [inhibitor, single point].

With `Cc1ccc(N2NC(C)(c3cccs3)NC2=S)cc1` (stereo not drawn) as the molecule, how does the Potency read?
The Potency was inconclusive: 35.5 µM [inhibitor, single point].

Which Potency does the source give for `CC(=O)NNc1nc(-c2ccc(C)cc2)cs1` here?
Its Potency is inconclusive: 39.8 µM [inhibitor, single point].

`Cn1cc(C(CC(=O)O)C(=O)O)c2ccccc21` (stereo not drawn) was tested. Which Potency did it give?
The Potency was inconclusive: 35.5 µM [inhibitor, single point].

`Cc1cc(=O)n2cccc(O)c2n1` was tested. Which Potency did it give?
The Potency was inconclusive: 31.6 µM [inhibitor, partial curve].

How did the Potency turn out when `C=C(C)COc1ccc(-c2[nH]ncc2-c2ccc(OC)cc2)c(O)c1` was run?
The Potency was inconclusive: 28.2 µM [inhibitor, single point].

With `Cc1ccc2nc(-c3ccc(NS(=O)(=O)c4c(C)n(C)c(=O)n(C)c4=O)cc3)sc2c1` as the molecule, how does the Potency read?
Its Potency is inconclusive: 28.2 µM [inhibitor, partial curve].

For `COc1cc(/C=C/C(=O)O)cc(S(=O)(=O)NCC2CCCO2)c1OC` (stereo not drawn), which Potency is on record?
Its Potency is inconclusive: 35.5 µM [inhibitor, single point].

How did the Potency turn out when `Cc1ccc(-c2nc(N/N=C/c3ccncc3)c3ccccc3n2)cc1` was run?
The Potency was inconclusive: 39.8 µM [inhibitor, single point].

With `COc1ccc2c(c1)CCC1=C2NC(=S)NC1c1ccc(N(C)C)cc1` (stereo not drawn) as the molecule, how does the Potency read?
Its Potency is inconclusive: 31.6 µM [inhibitor, single point].

Which Potency does the source give for `Cc1ccc(C)c2[nH]c(=O)c(CN(Cc3nnnn3C3CCCCC3)CC3CCCO3)cc12` (stereo not drawn) here?
The Potency was “inactive”.

How did the Potency turn out when `O=C(NCCCN1CCOCC1)C(=O)N/N=C/c1c2ccccc2cc2ccccc12` was run?
Its Potency is “inactive”.

With `COc1c2ccoc2nc2c(OC)c(O)ccc12` as the molecule, how does the Potency read?
The Potency was inconclusive: 28.2 µM [inhibitor, single point].

How did the Potency turn out when `S=c1[nH]cc(-c2ccccc2)[nH]1` was run?
Its Potency is inconclusive: 6.31 µM [inhibitor, single point].

For `Cc1cc2cc(C(c3nnnn3Cc3ccco3)N3CCc4ccccc43)c(=O)[nH]c2cc1C` (stereo not drawn), which Potency is on record?
The Potency was inconclusive: 25.1 µM [inhibitor, partial curve].

Which Potency does the source give for `O=C(OC[C@@H]1CCCN2CCCC[C@H]12)c1cc2ccccc2oc1=O` here?
Its Potency is inconclusive: 31.6 µM [inhibitor, single point].

Which Potency does the source give for `COc1ccc(CNc2ccc3c(c2)nc(C)n3C)cc1` here?
Its Potency is inconclusive: 39.8 µM [inhibitor, single point].

`Cc1ccc(O)c(C(=O)/C=C/c2ccc3c(c2)OCCO3)c1` was tested. Which Potency did it give?
Its Potency is “inactive”.

`COC(=O)c1scc(C)c1NC(=O)/C=C/C(=O)O` was tested. Which Potency did it give?
The Potency was “inactive”.

`CCC(c1nnnn1C1CCCCC1)N(Cc1ccco1)Cc1cc2ccc(OC)cc2[nH]c1=O` (stereo not drawn) was tested. Which Potency did it give?
Its Potency is inconclusive: 39.8 µM [inhibitor, single point].
